Reference: ChEMBL document CHEMBL1629563, “Pharmacokinetic and safety evaluation of BILR 355, a second-generation nonnucleoside reverse transcriptase inhibitor, in healthy volunteers” (Antimicrob Agents Chemother, 2008)

Substrate: CCN1c2ncc(CCOc3cc[n+]([O-])c4ccccc34)cc2C(=O)N(C)c2cccnc21
Experiment: Activity of human CYP3A4
Format: ADME

B1: Cytochrome P450 3A4 (Homo sapiens) (protein)
chain: MALIPDLAMETWLLLAVSLVLLYLYGTHSHGLFKKLGIPGPTPLPFLGNILSYHKGFCMFDMECHKKYGKVWGFYDGQQPVLAITDPDMIKTVLVKECYSVFTNRRPFGPVGFMKSAISIAEDEEWKRLRSLLSPTFTSGKLKEMVPIIAQYGDVLVRNLRREAETGKPVTLKDVFGAYSMDVITSTSFGVNIDSLNNPQDPFVENTKKLLRFDFLDPFFLSITVFPFLIPILEVLNICVFPREVTNFLRKSVKRMKESRLEDTQKHRVDFLQLMIDSQNSKETESHKALSDLELVAQSIIFIFAGYETTSSVLSFIMYELATHPDVQQKLQEEIDAVLPNKAPPTYDTVLQMEYLDMVVNETLRLFPIAMRLERVCKKDVEINGMFIPKGVVVMIPSYALHRDPKYWTEPEKFLPERFSKKNKDNIDPYIYTPFGSGPRNCIGMRFALMNMKLALIRVLQNFSFKPCKETQIPLKLSLGGLLQPEKPVVLKVESRDGTVSGA
Km: 0.854 µM
